The target in assay [1] is T1, recombinant MBP-mutCALR Type 1 fusion protein (Homo sapiens, UniProt P27797, DEL40-40).
T1 construct: His6 (N); purchased Cepter (cepterbiopartners.com), custom made
Briefly: Biacore SPR binding kinetics, Experiment 1. The note with it: Biacore 8K, 25° C., 1:1 binding model. How it is done: (§1) The amino acid sequence of recombinant MBP-mutCALR Type 1 fusion protein used in Experiments 1 and 2 is:
Experiment 1: Recombinant MBP-mutCALR Type 1 fusion protein was custom made at Cepter (cepterbiopartners.com). Data for the interaction of antibodies with recombinant MBP-mutCALR Type 1 fusion protein were collected at 25° C. on a Biacore 8K instrument (Cytiva, Marlborough, Mass.), and all reagents were obtained from Cytiva unless otherwise specified. The experiments were conducted using Tris-buffered saline (pH 7.2), 0.005% Surfactant P20, 1 mM CaCl2) as running buffer. To prepare the capture surfaces, anti-human IgG (Fc) antibodies (Product #29234600) was amine-coupled onto a CM4 chip (Product #BR100534) under standard conditions using an Amine Coupling Kit (Product #BR100050). Anti-mutCALR antibodies were captured onto the chip surface by injecting over flow cell 2 only at a flow rate of 30 μL/min for 30 seconds. […] The kinetics parameters were obtained by applying 1:1 binding model to fit the data from multiple-cycle injection experiments using Biacore Insight Evaluation software.
Background: SPR reads the build-up and loss of mass on a sensor chip optically.

In assay [2] the test system is Ba/F3 cells transfected with MPL and mutCALR Type 1. Briefly: Inhibition of cell proliferation, CellTiter-Glo 72 hours, mutCALR Type 1. Particulars: Ba/F3 engineered cells, high-throughput primary screening. The format is cell-based. The protocol:
To test the ability of anti-mutCALR antibodies to inhibit cell proliferation, engineered Ba/F3 cells transfected with MPL and mutCALR Type 1 were plated at 5,000 cells per well in RPMI 1640+2% FBS, antibodies added, incubated for 72 hours, and followed by assessment of cell viability using the CellTiter-Glo Luminescent Cell Viability Assay (Promega, Madison, Wis.) and Top Count (Perkin Elmer, Boston, Mass.) or Pherastar (BMG Labtech, Ortenberg, Germany) for luminescence quantification. Anti-mutCALR antibodies inhibit mutCALR-induced oncogenic cell proliferation in a dose-dependent manner in both the Ba/F3 engineered cells (FIG. 2).
To test the ability of anti-mutCALR antibodies to inhibit oncogenic cell proliferation triggered by the Type 1 and Type 2 CALR mutations, Ba/F3 cells (DSMZ) were engineered to express MPL+mutCALR Type 1 (52 bp deletion, SEQ ID NO:320) or MPL+mutCALR Type 2 (5 bp insertion; SEQ ID NO:321). Cells were plated at 5,000 cells per well in RPMI 1640+2% FBS, antibodies added, incubated for 72 hours, and followed by assessment of cell viability using the CellTiter-Glo Luminescent Cell Viability Assay (Promega, Madison, Wis.) and Top Count (Perkin Elmer, Boston, Mass.) or Pherastar (BMG Labtech, Ortenberg, Germany) for luminescence quantification. Anti-mutant CALR antibodies show potency to inhibit mutCALR-induced oncogenic cell proliferation associated with both Type 1 and Type 2 mutations (FIG. 3).

The subject of assay [3] is BaF3 cells expressing MPL/mutCALR Type 1. Nature of the assay: Example 16 inhibition of cell proliferation, CellTiter-Glo 72 hours. The format is cell-based. Particulars: BaF3 cells expressing MPL/mutCALR Type 1, 72 hours. The protocol:
The ability of the five antibodies shown here to inhibit cell proliferation was tested. Inhibition of cell proliferation was assessed using engineered BaF3 cells expressing MPL/mutCALR Type 1. Cells were plated at 5,000 cells per well in RPMI 1640+2% FBS, antibodies were added and incubated for 72 hours, followed by assessment of cell viability using the CellTiter-Glo Luminescent Cell Viability Assay (Promega, Madison, Wis.) and Top Count (Perkin Elmer, Boston, Mass.) or Pherastar (BMG Labtech, Ortenberg, Germany) for luminescence quantification. […] The data shown in FIGS. 21A and 21B were compiled from different experiments.
A general note: Cellular ATP, detected with luciferase, serves as a proxy for viable cell number.

In assay [4] the test system is Ba/F3-TPOR/mutCALR type 1 engineered cells. Briefly: Cell proliferation with antibody and/or ruxolitinib, mutCALR Type 1. The note with it: log value, 72 hours, marked *. The format is cell-based. How it is done:
To test the ability of anti-mutCALR antibodies to potentiate the therapeutic response of the JAK1/2 inhibitor ruxolitinib, Ba/F3 cells were engineered to express MPL+mutCALR Type 1 (52 bp deletion) or MPL+mutCALR Type 2 (5 bp insertion) as described above. Cells were plated at 5,000 cells per well in RPMI 1640+2% FBS, treated with 50 nM of ruxolitinib and/or anti-mutCALR antibodies. Cells were incubated for 72 hours followed by assessment of cell viability using the CellTiter-Glo Luminescent Cell Viability Assay (Promega, Madison, Wis.) and Top Count (Perkin Elmer, Boston, Mass.) or Pherastar (BMG Labtech, Ortenberg, Germany) for luminescence quantification. Ruxolitinib used at a concentration of 50 nM inhibited the level of oncogenic cell proliferation by approximately 20% (dotted line).

Assay [5] concerns MPL-mutCALR cells (BaF3 cells stably expressing human MPL and human mutCALR). Nature of the assay: Flow cytometry binding to cell surface MPL and mutCALR (GMFI, four parameter fit). The note with it: cell binding, GMFI, four parameter curve fitting. How it is done:
To assess binding of CALR antibodies to cell surface CALR, parental BaF3 (DSMZ) cells or BaF3 cells stably expressing only human MPL or both human MPL (Uniprot Number: P40238-1) and human mutCALR Type 1 and Type 2 were used. On the day of the assay, cells were washed and resuspended in assay buffer. Approximately 200,000 cells/well were added to 96-well plates and stained with the indicated concentration of antibodies for 30 minutes on ice. Cells were then washed and stained with goat anti-human secondary conjugated to R-phycoerythrin (R-PE) (Jackson Immuno Research Laboratories) for 30 minutes on ice. The cells were then washed and analyzed by flow cytometry. Geometric Mean Fluorescence Intensity (GMFI) of cell binding was graphed and EC50, hill slope, and area under the curve (AUC) were determined after four parameter curve fitting using GraphPad Prism Software (version 7.04).
For orientation: Flow cytometry measures light scatter and fluorescence of single cells or particles in a stream.

Assay [6] concerns the target T1, recombinant MBP-mutCALR Type 1 fusion protein. Briefly: Biacore SPR binding kinetics, Experiment 2 (parental and variant antibodies). Particulars: Biacore 8K, 25° C., 1:1 binding model. The protocol: as §1
Experiment 2: Recombinant MBP-mutCALR Type 1 fusion protein was custom made at Cepter (cepterbiopartners.com). Data for the interaction of antibodies with recombinant mutCALR protein were collected at 25° C. on a Biacore 8K instrument (Cytiva, Marlborough, Mass.), and all reagents were obtained from Cytiva unless otherwise specified. The experiments were conducted using Tris-buffered saline (pH 7.2), 0.005% Surfactant P20, 1 mM CaCl2) as running buffer. To prepare the capture surfaces, anti-human IgG (Fc) antibodies (Product #29234600) was amine-coupled onto a CM4 chip (Product #BR100534) under standard conditions using an Amine Coupling Kit (Product #BR100050). Anti-mutCALR antibodies were captured onto the chip surface by injecting over flow cell 2 only at a flow rate of 10 μL/min for 30 seconds. […] Recombinant MBP-mutCALR Type 1 fusion protein was prepared at nominal concentrations of 0, 0.75, 2.22, 6.67, 20, and 60 nM and injected over both flow cells 1 and 2 for 150 seconds at a flow rate of 69 L/min, followed by a 230-second dissociation phase at the same flow rate. The kinetics parameters were obtained by applying 1:1 binding model to fit the data from multiple-cycle injection experiments using Biacore Insight Evaluation software.

B1: 39 (antibody)
heavy: EVQLVQSGAEVKKPGSSVKVSCKASGGTFSSYAISWVRQAPGQGLEWMGLVDPEDGETIYAEKFQGRVTITADTSTDTAYMELSSLRSEDTAVYYCATEESYGPWGQGTLVTVSSASTKGPSVFPLAPSSKSTSGGTAALGCLVKDYFPEPVTVSWNSGALTSGVHTFPAVLQSSGLYSLSSVVTVPSSSLGTQTYICNVNHKPSNTKVDKRV[omitted - human IgG1 Fc]
light: DIQLTQSPSSLSASVGDRVTITCQASQDISNYLDWYQQKPGKAPKLLIYDASNLETGVPSRFSGSGSGTEFTLTISSLQPEDFATYYCQQLNSYPLTFGGGTKLEIKRTVAAPSVFIFPPSDEQLKSGTASVVCLLNNFYPREAKVQWKVDNALQSGNSQESVTEQDSKDSTYSLSSTLTLSKADYEKHKVYACEVTHQGLSSPVTKSFNRGEC
Consider B1, for which, in assay [1], the “ka” value is 322000 M⁻¹ s⁻¹ and the “kd” value came to 0.0018 s⁻¹. In assay [2], the “IC50 inhibition of cell proliferation” value turned out to be 0.1042 µg/mL. In assay [3], the “IC50 for anti-mutCALR antibody mediated inhibition of cell proliferation” value was found to be 21 µg/mL.

B2: 51 (antibody)
heavy: EVQLVQSGAEVKKPGSSVKVSCKASGGTFSSYAISWVRQAPGQGLEWMGGIIPIFGTANYAQKFQGRVTITADESTSTAYMELSSLRSEDTAVYYCASSPLRGSGWYWHYYYGMDVWGQGTTVTVSSASTKGPSVFPLAPSSKSTSGGTAALGCLVKDYFPEPVTVSWNSGALTSGVHTFPAVLQSSGLYSLSSVVTVPSSSLGTQTYICNVNHKPSNTKVDKRV[omitted - human IgG1 Fc]
light: SYELTQPPSVSVAPGKTARITCGGNKIGTKSVHWYQQKPGQAPVLVIYQDSKRPSGIPERFSGSNSGNTATLTISGTQAMDEADYYCQAWGSSTVVFGGGTKLTVLGQPKAAPSVTLFPPSSEELQANKATLVCLISDFYPGAVTVAWKADSSPVKAGVETTTPSKQSNNKYAASSYLSLTPEQWKSHRSYSCQVTHEGSTVEKTVAPTECS
B2: the entries for the “ka” value in assay [1] and in assay [6] were 235000 M⁻¹ s⁻¹ and 636000 M⁻¹ s⁻¹, respectively. The “kd” value in assay [1] worked out at 0.00109 s⁻¹; in assay [6], 0.000524 s⁻¹. Also, in assay [4], the “Log IC50, Antibody alone (extrapolated from fitted curve)” value is reported as −1.585* μg/mL. Moreover, in assay [4] (with 50 nM ruxolitinib), the “Log IC50, Antibody + ruxolitinib (extrapolated from fitted curve)” value is recorded as −4.962* μg/mL. Further, the “MPL-mutCALR Hill Slope” value in assay [5] was determined as 1.31. The “IC50 inhibition of cell proliferation” value in assay [2] came out at 0.9771 µg/mL.

These data come from patent publication US20230272055A1, “ANTI-MUTANT CALRETICULIN (CALR) ANTIBODIES AND USES THEREOF” (Incyte Corporation, priority 2021, published 2023).
